Test results as given in the supplement of paper PMC10338343.
± gives the standard deviation. This is a selection; strong and weak results do not stand in their true shares.

These sequences were tested on MIWI (PIWIL1) piRISC loaded with L1MC piRNA (30 nt) (assay: pre-steady-state target cleavage rate (min^-1); MIWI and MILI are mouse PIWI proteins and EfPiwi is from a freshwater sponge; tags in brackets are library labels; higher = faster piRNA-guided slicing of the target). Settings: guide: L1MC piRNA 5'p-UAACUAAAUACUAUGCAAGCUGUAGGUCCU; auxiliary factor: 500 nM mouse GTSF1.
Procedure, shortened: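 In Cleave-'n-Seq, a transcribed, DNA-blocked target RNA library (0.1 nM) was combined with 1 nM active affinity-purified piRISC bearing one synthetic guide, with or without 500 nM GTSF1 partner protein. Reactions ran in HEPES–potassium acetate buffer at 33 °C for 0–8 or 0–960 min. Uncleaved targets were sequenced and normalised to depth and to weakly complementary targets, three trials were pooled, and k3 was capped at 0.0001 min^-1. The pre-steady-state cleavage rate was obtained by fitting a burst-and-steady-state model.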

First: UCGACCUACAGCUUGCAUUCAAUUUAGUUA
Second: UCCUGGAUGUCGAACGAAAGUUUUUAGUUA
The “pre-steady-state target cleavage rate” value of the first is higher: 0.0128 ± 0.006 for the first, under 0.0001 for the second.

UCCUGGAUCAGCUUGCAUAGUUUUUACAAA and UCCUCCUACAGCUUGGUAAGUAUUUAGUAA are within error of each other in “pre-steady-state target cleavage rate” value: 0.0207 ± 0.0089 for the first, 0.0288 ± 0.0087 for the second.

Going from UCGACCUACAGCAUGCAUAGUAUUUAGAAA to UCCUGGAUGACCUUGCAUAGUAUUUAGAAA, the “pre-steady-state target cleavage rate” value falls from 0.62 ± 0.066 to 0.0101 ± 0.0061.

UCGACCUAGAGCUUGCAUAGUAUUUUCAAA and UCCACCUACAGCAAGCAUAGUAUUUUCAAA are within error of each other in “pre-steady-state target cleavage rate” value: 0.205 ± 0.035 for the first, 0.196 ± 0.038 for the second.

UCCUCCUACUCGUUGCAUAGUAUUUACAAA and UCGACCUACAGCUUCCAUUGUAUUUAGUUA are within error of each other in “pre-steady-state target cleavage rate” value: 0.127 ± 0.022 for the first, 0.159 ± 0.019 for the second.

Going from UCCUGCUACAGCUUGCAUAGAUAUUUAGUUA to AGGACCUACAGCUUGCUAAGUAUUUAGAAA, the “pre-steady-state target cleavage rate” value rises from 0.00924 ± 0.0054 to 0.186 ± 0.047.

UCCUCCUACAGCUUGCAUAGCUAUUUAGUUA was tested, and the “pre-steady-state target cleavage rate” value was 0.0221 ± 0.01.

Same assay, conditions: guide: L1MC piRNA 5'p-UAACUAAAUACUAUGCAAGCUGUAGGUCCU; auxiliary factor: none (no GTSF1)

AGGUCCUACAGCUUGCAAAGUAUUUAGUUA and UCCUCGAUCAGCUUGCAUAGUAUUUAGUUA are within error of each other in “pre-steady-state target cleavage rate” value: 0.0532 ± 0.01 for the first, 0.0718 ± 0.013 for the second.

With UCCUGGAUGUCGAACCUAUAGUAUUUAGUUA the “pre-steady-state target cleavage rate” value was under 0.0001.
